Reference: the supplement of paper PMC10670038
Where a name gives a salt, the structure may show the parent alone. ± gives the standard deviation of the averaged measurements. In all, about 2,000 compounds were measured (“relative cell viability vs DMSO, compound alone”: median about 1.1, lowest 2% from about 0.29 on). This is one part of the list.

These compounds were tested on TE10 (assay: relative cell viability vs DMSO, compound alone (fraction); TE10 is an esophageal squamous carcinoma line; higher = less cytotoxic). Conditions: 2 µM; 48 h.
Procedure: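 TE10 ESCC cells (1,000/well, 384-well plates) were treated with Selleck bioactive library compounds at 2 uM alone for 48 h. Viability was read by CellTiter-Glo and expressed relative to DMSO wells. Two technical replicates (A, B).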

Compound | relative cell viability
NC(=O)Nc1sc(-c2ccc(F)cc2)cc1C(N)=O | 0.98 ± 0.072
CC(C)(C)OC(=O)N[C@H]1CCCCC/C=C\[C@@H]2C[C@@]2(C(=O)NS(=O)(=O)C2CC2)NC(=O)[C@@H]2C[C@@H](OC(=O)N3Cc4cccc(F)c4C3)CN2C1=O [Danoprevir (ITMN-191)] | 1.194 ± 0.0044
CCCC(=O)Nc1ccc(OCC(O)CNC(C)C)c(C(C)=O)c1 (stereo not drawn) [Acebutolol HCl] | 1.01 ± 0.2
COc1ccnc2[nH]cc(C(=O)C(=O)N3CCN(C(=O)c4ccccc4)C[C@H]3C)c12 | 1.16 ± 0.027
C[C@@H]1O[C@@H](OC[C@H]2O[C@@H](Oc3c(-c4ccc(O)c(O)c4)oc4cc(O)cc(O)c4c3=O)[C@H](O)[C@@H](O)[C@@H]2O)[C@H](O)[C@H](O)[C@H]1O [Rutin] | 1.08 ± 0.071
CN1[C@@H]2CC[C@H]1C[C@@H](OC(c1ccccc1)c1ccccc1)C2 [Benztropine mesylate] | 1.08 ± 0.096
CO/N=C(\C(=O)N[C@@H]1C(=O)N2C(C(=O)O)=C(CSC(=O)c3ccco3)CS[C@H]12)c1csc(N)n1 [Ceftiofur HCl] | 0.997 ± 0.043
COc1nc(C)cnc1NS(=O)(=O)c1cccnc1-c1ccc(-c2nnco2)cc1 [Zibotentan (ZD4054)] | 1.183 ± 0.011
C/C(O)=C(\C#N)C(=O)Nc1ccc(C(F)(F)F)cc1 [Teriflunomide] | 1.02 ± 0.018
Nc1nccc2c1ncn2C1C=C(CO)C(O)C1O (stereo not drawn) [3-Deazaneplanocin A (DZNeP)] | 0.908 ± 0.019
Cc1nc(N(C)C(=O)Cc2ccc(-c3ccccn3)cc2)sc1S(N)(=O)=O [Pritelivir (BAY 57-1293)] | 1.11 ± 0.032
Cn1cc(/C=C/C(=O)c2cccc(F)c2)cc1/C=C/C(=O)NO | 1.11 ± 0.077
N[C@@H](CC(=O)N1CCn2c(nnc2C(F)(F)F)C1)Cc1cc(F)c(F)cc1F [Sitagliptin phosphate monohydrate] | 1.17 ± 0.047
C[C@@H]1O[C@@H](O[C@H]2[C@H](Oc3cc(O)c4c(c3)O[C@H](c3ccc(O)cc3)CC4=O)O[C@H](CO)[C@@H](O)[C@@H]2O)[C@H](O)[C@H](O)[C@H]1O [Naringin] | 1.02 ± 0.027
Cn1cc(C2=C(c3cn(CCCSC(=N)N)c4ccccc34)C(=O)NC2=O)c2ccccc21 [Ro 31-8220 Mesylate] | 1.04 ± 0.0087
CNCC[C@@H](Oc1ccccc1C)c1ccccc1 [Atomoxetine HCl] | 1.04 ± 0.013
Cc1ccc(C(=O)C(C)CN2CCCCC2)cc1 (stereo not drawn) [Tolperisone HCl] | 1.01 ± 0.049
NS(=O)(=O)C#Cc1ccccc1 [Pifithrin-μ] | 0.726 ± 0.036
C[C@@H](Oc1cc(-c2cnn(C3CCNCC3)c2)cnc1N)c1c(Cl)ccc(F)c1Cl | 0.997 ± 0.053
Cc1cc(Nc2ncc(Cl)c(Nc3ccccc3S(=O)(=O)C(C)C)n2)c(OC(C)C)cc1C1CCNCC1 | 0.9178 ± 0.0036
O=C(O)Cc1cc(I)c(Oc2ccc(O)c(I)c2)c(I)c1 [Tiratricol] | 1.17 ± 0.032
CCC(CC)(NC(=O)C(C)C)C(=O)N[C@@H](CCCN=C(N)N)C(=O)NC1(C(=O)NC(c2ccc(F)cc2)c2ccc(F)cc2)CCCC1 | 1.067 ± 0.0047
CCCc1nc2c(C)cc(-c3nc4ccccc4n3C)cc2n1Cc1ccc(-c2ccccc2C(=O)O)cc1 [Telmisartan] | 1.02 ± 0.046
COCCCOc1cc(C[C@@H](C[C@H](N)[C@@H](O)C[C@H](C(=O)NCC(C)(C)C(N)=O)C(C)C)C(C)C)ccc1OC [Aliskiren Hemifumarate] | 1.19 ± 0.037
Cc1ccc(C(=O)N(CCCN)[C@@H](c2nc3cc(Cl)ccc3c(=O)n2Cc2ccccc2)C(C)C)cc1 | 0.967 ± 0.04
CC1=CC(=O)c2ccccc2C1=O [Menadione] | 0.981 ± 0.01

Compound | relative cell viability
CC(=O)/N=c1/sc(S(N)(=O)=O)nn1C [Methazolamide] | 1.2 ± 0.061
COc1cc2ncnc(Nc3ccc(F)c(Cl)c3)c2cc1NC(=O)/C=C/CN1CCCCC1 | 1.03 ± 0.014
CCCCC1C(=O)N(c2ccccc2)N(c2ccccc2)C1=O [Phenylbutazone] | 0.943 ± 0.022
Nc1ncnc2c1nc(Br)n2[C@@H]1O[C@@H]2COP(=O)(O)O[C@H]2[C@H]1O [8-Bromo-cAMP] | 0.858 ± 0.024
CN(C)c1cc(NC(=O)CNC(C)(C)C)c(O)c2c1CC1CC3C(N(C)C)C(=O)C(C(N)=O)=C(O)C3(O)C(=O)C1=C2O (stereo not drawn) [Tigecycline] | 1.111 ± 0.0089
COc1cc2c(cc1Cc1cccc(Cl)c1F)c(=O)c(C(=O)O)cn2[C@H](CO)C(C)C [Elvitegravir (GS-9137, JTK-303)] | 1.0429 ± 0.00053
COc1ccc2cc3[n+](cc2c1OC)CCc1cc2c(cc1-3)OCO2 [Berberine HCl] | 1.22 ± 0.017
Cn1sc(=O)n(Cc2ccccc2)c1=O | 1.06 ± 0.025
CC(=O)NC[C@H]1CN(c2ccc(N3CCOCC3)c(F)c2)C(=O)O1 [Linezolid] | 1.11 ± 0.068
Cc1nccn1CC1CCc2c(c3ccccc3n2C)C1=O (stereo not drawn) [Ondansetron HCl] | 1.19 ± 0.11
COc1ccc2c(c1)c(CC(=O)OCC(=O)O)c(C)n2C(=O)c1ccc(Cl)cc1 [Acemetacin] | 1.13 ± 0.021
CC1=C(C(=O)O)N2C(=O)[C@@H](NC(=O)[C@H](N)c3ccccc3)[C@H]2SC1 [Cephalexin] | 1.159 ± 0.004
CC[C@H](C)C(=O)O[C@H]1C[C@H](O)C=C2C=C[C@H](C)[C@H](CC[C@@H](O)C[C@@H](O)CC(=O)O)[C@H]21 [Pravastatin sodium] | 0.871 ± 0.14
Nc1ccccc1NC(=O)c1ccc(CNc2nccc(-c3cccnc3)n2)cc1 [Mocetinostat (MGCD0103)] | 0.33 ± 0.063
COc1cc(-c2cc(-c3ccc(N4CCNCC4)cc3)cnc2C)cc(OC)c1OC | 1.16 ± 0.019
CC(C)(C)OC(=O)Nc1ccc(-c2cc(C(=O)NCCCCCCC(=O)NO)no2)cc1 | 0.582 ± 0.038
COc1cc(-c2cc(-c3cccc(O)c3)cnc2N)cc(OC)c1OC | 1.21 ± 0.0055
COc1cc2ncnc(Nc3ccc(O)c(Br)c3)c2cc1OC | 1.223 ± 0.0039
O=C(O)c1ccc(O)c2ncccc12 | 1.11 ± 0.036
CO[C@H]1C[C@@H]2CC[C@@H](C)[C@@](O)(O2)C(=O)C(=O)N2CCCC[C@H]2C(=O)O[C@H]([C@H](C)C[C@@H]2CC[C@H](n3cnnn3)[C@H](OC)C2)CC(=O)[C@H](C)/C=C(\C)[C@@H](O)[C@@H](OC)C(=O)[C@H](C)C[C@H](C)/C=C/C=C/C=C/1C [Zotarolimus(ABT-578)] | 0.888 ± 0.073
CCCC(=O)Nc1cccc(NC(=O)c2ccccc2Br)c1 | 1.09 ± 0.038
CN1CCN(c2ccc(Nc3cc(-c4cccc(-n5ccc6cc(C7CC7)cc(F)c6c5=O)c4CO)cn(C)c3=O)nc2)CC1 | 0.9932 ± 0.0039
CN(C)C(=O)c1cc2cnc(Nc3ccc(N4CCNCC4)cn3)nc2n1C1CCCC1 | 1.147 ± 0.008
CC(=O)O[C@]1(C(C)=O)CC[C@H]2[C@@H]3C=C(C)C4=CC(=O)CC[C@]4(C)[C@H]3CC[C@@]21C [Megestrol Acetate] | 1.15 ± 0.17
C=C1[C@H](CO)[C@@H](O)C[C@@H]1n1cnc2c(=O)[nH]c(N)nc21 [Entecavir Hydrate] | 1.19 ± 0.021
Nc1nnc(-c2cccc(Cl)c2Cl)c(N)n1 [Lamotrigine] | 1.045 ± 0.0061

Compound | relative cell viability
Brc1ccc(C2CN3CCSC3=N2)cc1 (single isomer, unassigned; (-)) [(-)-p-Bromotetramisole Oxalate] | 1.18 ± 0.046
Cc1cc(Nc2cc(CN3CCOCC3)c3nc(C)c(Cc4ccc(Cl)cc4F)n3n2)n[nH]1 | 0.986 ± 0.079
CC[C@@]1(O)C(=O)OCc2c1cc1n(c2=O)Cc2cc3c(CN(C)C)c(O)ccc3nc2-1 [Topotecan HCl] | 0.524 ± 0.17
O=C(NC1CC1)c1cc(-c2cccs2)on1 [Isoxazole 9 (ISX-9)] | 1.05 ± 0.022
Oc1cc(O)cc(/C=C/c2ccc(O)c(O)c2)c1 [Piceatannol] | 1.06 ± 0.014
Nc1nc(=O)[nH]cc1F [Flucytosine] | 1.01 ± 0.063
Cc1cccc(-c2[nH]ncc2-c2ccc3ncccc3n2)n1 | 1.15 ± 0.029
O=C(NCCCNc1nc(Nc2cccc(NC(=O)N3CCCC3)c2)ncc1I)c1cccs1 | 0.943 ± 0.017
CN1CC[C@@H](c2c(O)cc(O)c3c(=O)cc(-c4ccccc4Cl)oc23)[C@@H]1CO | 0.501 ± 0.008
CN(Cc1ccc(C(C)(C)C)cc1)Cc1cccc2ccccc12 [Butenafine HCl] | 1.21 ± 0.024
S=c1[nH]cnc2nc[nH]c12 [Mercaptopurine (6-MP)] | 1.05 ± 0.025
NS(=O)(=O)c1ccc(NC(=O)Nc2ccc(F)cc2)cc1 | 1.09 ± 0.013
N#CC(=Cc1ccc(-c2cc(Cl)ccc2Cl)o1)C(=O)Nc1cccc2ncccc12 | 1.05 ± 0.003
Cc1cc(F)c(Nc2ncnc3cc(OCc4ccccc4)ccc23)cc1O | 1.13 ± 0.024
O=c1[nH]c(=O)n([C@H]2C[C@H](O)[C@@H](CO)O2)cc1C(F)(F)F [Trifluridine] | 1.04 ± 0.023
Cn1cncc1[C@@](N)(c1ccc(Cl)cc1)c1ccc2c(c1)c(-c1cccc(Cl)c1)cc(=O)n2C [Tipifarnib] | 0.9723 ± 0.0062
Cc1cc(C#N)cc(C)c1Oc1nc(Nc2ccc(C#N)cc2)nc(N)c1Br [Etravirine (TMC125)] | 1.13 ± 0.021
Cc1nc2c(O)cccc2c(=O)[nH]1 | 1.16 ± 0.089
O=C(NNc1ccccc1)c1ccncc1 | 1.06 ± 0.051
CC(C)n1cnc2c(NCCc3ccc(O)cc3)nc(-c3csc4ccccc34)nc21 [StemRegenin 1 (SR1)] | 1.15 ± 0.051
NC1=NCC2c3ccccc3Cc3ccccc3N12 (stereo not drawn) [Epinastine HCl] | 1.05 ± 0.014
NC(=O)N1c2ccccc2CC(=O)c2ccccc21 [Oxcarbazepine] | 0.947 ± 0.022
Oc1nc(-c2ccc(C(F)(F)F)cc2)nc2c1CSCC2 | 1.21 ± 0.024
Cc1nc2ccc(NC(=O)Nc3ccnc4cccnc34)cc2o1 | 1.19 ± 0.044
Cc1ccc(Cl)cc1N(CC(=O)Nc1c(F)cccc1F)S(C)(=O)=O | 1.166 ± 0.01
O=C1N=C(O)NC1(c1ccccc1)c1ccccc1 [Phenytoin sodium] | 1.033 ± 0.0082
